Experimental data: article PMC5892938
The other results are listed elsewhere or left out. Construct or isoform of the protein are uncertain.

Target: GST-SBP-ILF3 (Homo sapiens) (UniProt Q12906)
Assay: targeted RNA Bind-n-Seq
Conditions: RBNS binding buffer: 25 mM Tris pH 7.5, 150 mM KCl, 3 mM MgCl2, 0.1% Tween, 0.5 mg/mL BSA, 1 mM DTT; 27 nM protein, 750 pM RNA pool; temperature not stated; high values mean tight binding; sequences stand for … in GGGUAAAAGCGAGGUGAA…CGGGACAAGUAUUAUGGG

Sequence	binding signal (log2 fold change)
UUUUUUUUUUGAGACGGUGGCCGUCUUCUG [tttttgagapaired]	0.981
UUCUUCCUUCCUCCGAGGGAGGAGGGGAGA [ctspaired]	-0.373
UUUUUUUUUUGAGAACGGAGCGUUCUCCGG [tttttgagapaired]	0.279
UUUUUUUUUUGAGACGGGAUCCGUUUCCAG [tttttgagapaired]	0.494
UUUUUUUUUUGAGAUCGUAACGAUUUCCAG [tttttgagapaired]	0.16
GUGGUGUGUGUUGGCCUCUAACACAUACCG [gtspaired]	-0.754
GUGUGUGGUGUUGGUCUCUAACACCGCGCA [gtspaired]	-0.565
UUUUUUUUUUGAGACUGCAGCAGUCUCCUG [tttttgagapaired]	0.777
GUGUUGUGUGUUGGACUCUAACACACAGCG [gtspaired]	-0.827
UUUUUUUUUUGAGACGGCGGCCGUCUCCUA [tttttgagapaired]	0.908
GGUUGUUGUGUUGGCGCCUAACACAGCAAC [gtspaired]	-0.368
GUGUGUGGUGUUGGCGUCUAACACCACGCA [gtspaired]	-0.781
UUUUUUUUUUGAGAGGGCUGCCCUCUUCUG [tttttgagapaired]	0.941
UUUUUUUUUUGAGACUGCUACAGUCUCCGG [tttttgagapaired]	0.385
UUUUUUUUUUGAGAGCGAAGCGCUCUUCUG [tttttgagapaired]	0.181
UUUUUUUUUUGAGAUGGCAACCAUCUCCGG [tttttgagapaired]	0.35
GUGUGUGGUGUUGGCAUCUAACACCACGCA [gtspaired]	-0.603
GUUGGUGGUGUUGGAUCCUAACACCGCCGA [gtspaired]	-0.489
GUGGUGUGUGUUGGCGCCUAACACAUACCG [gtspaired]	-0.333
UUUUUUUUUUGAGACUGAAACAGUUUCCAG [tttttgagapaired]	0.189
UUUUUUUUUUGAGACCGUAUCGGUCUUCUA [tttttgagapaired]	0.257
UUUUUUUUUUGAGACCGCAGCGGUCUUCUA [tttttgagapaired]	0.714
GUGUGUGGUGUUGGCCUCUAACACCAUAUA [gtspaired]	-0.897
UUUUUUUUUUGAGAGGGAUCCCCUCUCCUG [tttttgagapaired]	0.334
UUUUUUUUUUGAGAGCGUAACGUUCUUCUA [tttttgagapaired]	0.44
UUUUUUUUUUGAGAGCGAGUCGCUCUUCUG [tttttgagapaired]	0.561

Sequence	binding signal (log2 fold change)
UUUUUUUUUUGAGAGUGUGACAUUCUUCUA [tttttgagapaired]	0.0461
GUGUGGUGUGUUGGACCCUAACACACUACA [gtspaired]	-0.232
UUUUUUUUUUGAGACGGAACCCGUCUCCUG [tttttgagapaired]	0.41
UUUUUUUUUUGAGAUCGGGACGAUUUCCUA [tttttgagapaired]	0.572
GUGUGUGGUGUUGGAGCCUAACACCAUACG [gtspaired]	-0.298
UUUUUUUUUUGAGACUGCUACAGUUUUCUA [tttttgagapaired]	0.038
GUGUGGUGUGUUGGAACCUAACACACCGCG [gtspaired]	-0.737
UUUUUUUUUUGAGAGGGUAUCCCUCUCCUG [tttttgagapaired]	0.253
UUUUUUUUUUGAGACCGUGUCGGUCUCCUG [tttttgagapaired]	1.12
GGUGGUGGUGUUGGCCUCUAACACCAUCGC [gtspaired]	-0.754
UUUUUUUUUUGAGAUGGUAGCUAUCUCCUA [tttttgagapaired]	0.207
GUGUGUGGUGUUGGCGCCUAACACCACGCA [gtspaired]	-0.205
UUUUUUUUUUGAGAACGAUGCGUUCUCCGG [tttttgagapaired]	0.159
UUUUUUUUUUGAGAGGGGGUCCCUCUCCUA [tttttgagapaired]	0.73
UUUUUUUUUUGAGAUCGAGGCGAUCUCCUG [tttttgagapaired]	0.498
UUUUUUUUUUGAGAUGGACCCCAUCUCCAG [tttttgagapaired]	0.796
UUUUUUUUUUGAGACCGGUCCGGUCUCCAG [tttttgagapaired]	0.487
UUUUUUUUUUGAGACGGAGUCUGUCUCCUG [tttttgagapaired]	0.722
GUUGGUGGUGUUGGCCCCUAACACCGCCAG [gtspaired]	-0.304
GGUGGUUGUGUUGGCUCCUAACACAAUCGC [gtspaired]	-0.624
GGUUGGUGUGUUGGUCCCUAACACACCAGC [gtspaired]	-0.0445
UUUUUUUUUUGAGACUGAGGCAGUUUCCGG [tttttgagapaired]	0.734
GUGUGGUGUGUUGGAUCCUAACACACUACG [gtspaired]	-0.756
UUUUUUUUUUGAGAGCGACACGCUCUUCUA [tttttgagapaired]	0.154
UUUUUUUUUUGAGACUGGCGCAGUCUUCUA [tttttgagapaired]	0.565
UUUUUUUUUUGAGAUGGGGCCCAUCUCCUG [tttttgagapaired]	0.786

Sequence	binding signal (log2 fold change)
UUUUUUUUUUGAGACGGCCGCCGUCUCCUA [tttttgagapaired]	0.918
UUUUUUUUUUGAGAGGGCCGCCCUCUCCAG [tttttgagapaired]	1.11
UUUUUUUUUUGAGAUCGGAACGAUCUCCGG [tttttgagapaired]	0.265
GUGGUGUGUGUUGGACUCUAACACAUACCA [gtspaired]	-0.321
UUUUUUUUUUGAGAUCGGGACGAUCUCCUA [tttttgagapaired]	-0.188
GUGUGGUGUGUUGGUGUCUAACACAUCGCA [gtspaired]	-0.798
UUUUUUUUUUGAGAGCGAUGCGCUCUCCAG [tttttgagapaired]	0.164
GUGUGUGGUGUUGGCAUCUAACACCGCGCA [gtspaired]	-0.74
GGUGGUGGUGUUGGACUCUAACACCAUCGC [gtspaired]	-0.224
GGUGUGUGUGUUGGAUCCUAACACAUAUAC [gtspaired]	-0.668
GUGGUGUGUGUUGGUCCCUAACACACGCCG [gtspaired]	-0.367
UUUUUUUUUUGAGACGGCAACUGUCUCCGG [tttttgagapaired]	0.941
UUUUUUUUUUGAGAACGGGUCGUUCUUCUA [tttttgagapaired]	0.188
GUGGUUGGUGUUGGCACCUAACACCAGCCG [gtspaired]	-0.725
UUUUUUUUUUGAGACUGGAGCAGUCUCCGG [tttttgagapaired]	0.631
UUUUUUUUUUGAGAAGGUAUCCUUCUCCUA [tttttgagapaired]	-0.0555
UUUUUUUUUUGAGAGGGCUGCCCUCUCCUA [tttttgagapaired]	1.05
UUUUUUUUUUGAGAUCGAAACGAUCUCCGG [tttttgagapaired]	0.266
GUGUGUUGUGUUGGCCUCUAACACAGCGCA [gtspaired]	-0.477
GGUUGUGGUGUUGGCACCUAACACCACAGC [gtspaired]	-0.26
UUUUUUUUUUGAGAUCGAGACGAUCUUCUA [tttttgagapaired]	-0.0314
UUCUCUUCUCCUCCGCCGGAGGGGGAGAGA [ctspaired]	-0.451
GUGUGGUGUGUUGGAAUCUAACACAUCGCA [gtspaired]	-0.615
UUUUUUUUUUGAGAUGGUAGCCAUCUUCUG [tttttgagapaired]	0.358
UUUUUUUUUUGAGAGGGAUGCCCUCUCCAG [tttttgagapaired]	0.444
UUUUUUUUUUGAGAGGGAUCCCCUUUCCAG [tttttgagapaired]	0.196

Sequence	binding signal (log2 fold change)
UUUUUUUUUUGAGAUGGGUCCCAUCUCCUA [tttttgagapaired]	0.689
UUUUUUUUUUGAGAUGGGGACUAUCUCCUG [tttttgagapaired]	0.756
UUUUUUUUUUGAGACGGUGACCGUCUUCUA [tttttgagapaired]	0.455
GGUGUGUGUGUUGGCACCUAACACAUACAC [gtspaired]	-0.582
UUUUUUUUUUGAGAGGGAAGCCCUCUCCGG [tttttgagapaired]	0.333
GGUUGGUGUGUUGGCUCCUAACACAUCAAC [gtspaired]	-0.651
UUUUUUUUUUGAGACCGGGACGGUCUCCGG [tttttgagapaired]	0.0777
UUUUUUUUUUGAGACUGGUGCAGUCUCCAG [tttttgagapaired]	0.298
UUUUUUUUUUGAGACGGAAGCCGUCUUCUG [tttttgagapaired]	0.584
UUUUUUUUUUGAGACGGGAACUGUCUCCAG [tttttgagapaired]	0.854
UUUUUUUUUUGAGACCGGGUCGGUUUCCUG [tttttgagapaired]	0.668
GGUGUGUGUGUUGGUCUCUAACACAUACAC [gtspaired]	-0.864
UUUUUUUUUUGAGAGGGCCUCCCUCUCCAG [tttttgagapaired]	0.79
GUUGUGUGUGUUGGUCUCUAACACACACAG [gtspaired]	-0.349
GGUUGGUGUGUUGGCAUCUAACACAUCAAC [gtspaired]	-0.269
UUUUUUUUUUGAGAGGGUACCCCUCUCCUG [tttttgagapaired]	0.388
GUUGUGUGUGUUGGUACCUAACACACGCAA [gtspaired]	-0.0906
UUUUUUUUUUGAGACGGCUGCCGUCUUCUA [tttttgagapaired]	0.692
UUUUUUUUUUGAGAUGGACUCCAUCUCCGG [tttttgagapaired]	0.0618
GGUUGGUGUGUUGGUAUCUAACACAUCGAC [gtspaired]	-0.762
UUUUUUUUUUGAGACGGGUACCGUCUCCAG [tttttgagapaired]	0.469
UUUUUUUUUUGAGAUGGGGUCCAUUUCCUG [tttttgagapaired]	0.858
UUUUUUUUUUGAGACGGCGGCCGUCUUCUA [tttttgagapaired]	0.752
UUUUUUUUUUGAGACGGAGACCGUUUCCUG [tttttgagapaired]	0.838
UUUUUUUUUUGAGAACGAGUCGUUCUCCAG [tttttgagapaired]	0.116
